Source: the supplement of paper PMC4967469

Key:
Assay in all cases: Viability of human cancer cell lines after 72 h of drug (GDSC screen)
(5Z)-7-Oxozeaenol = compound: COc1cc(O)c2c(c1)/C=C/C[C@H](O)[C@H](O)C(=O)/C=C\C[C@H](C)OC2=O [(5Z)-7-Oxozeaenol]; settings: top dose 10 µM; top dose inferred
Protocol: (§1)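 Human cancer cell lines in 384-well plates, medium with 10% serum, drug for 72 h over a 256-fold dose range (nine 2-fold or five 4-fold steps up to the top dose). Adherent lines were fixed and stained with the nucleic acid dye Syto60, suspension lines read with resazurin; signal relative to control wells, capped at 0 and 100%. One two-parameter sigmoid per drug and line, fitted in a mixed model over all curves with the slope shared within a line.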

ABT-869 = compound: Cc1ccc(F)c(NC(=O)Nc2ccc(-c3cccc4[nH]nc(N)c34)cc2)c1 [ABT-869]; settings: top dose 1.024 µM; top dose inferred
Protocol: as §1

Thapsigargin = compound: C/C=C(/C)C(=O)O[C@H]1C(C)=C2[C@H]([C@@H]1OC(=O)CCCCCCC)[C@@](C)(OC(C)=O)C[C@H](OC(=O)CCC)[C@@]1(O)[C@H]2OC(=O)[C@@]1(C)O [Thapsigargin]; settings: top dose 0.512 µM; top dose inferred
Protocol: as §1

CHIR-99021 = compound: Cc1cnc(-c2cnc(NCCNc3ccc(C#N)cn3)nc2-c2ccc(Cl)cc2Cl)[nH]1 [CHIR-99021]
Protocol: as §1

GSK269962A = compound: CCn1c(-c2nonc2N)nc2cnc(Oc3cccc(NC(=O)c4ccc(OCCN5CCOCC5)cc4)c3)cc21 [GSK269962A]; settings: top dose 5 µM; screen: GDSC drug entry 1192; top dose inferred
Protocol: as §1

KU-55933 = compound: O=c1cc(-c2cccc3c2Sc2ccccc2S3)oc(N2CCOCC2)c1 [KU-55933]; settings: top dose 10 µM
Protocol: as §1

QL-X-138 = compound: C=CC(=O)Nc1cc(-n2c(=O)ccc3cnc4ccc(-c5cn[nH]c5)cc4c32)ccc1C [QL-X-138]; settings: top dose 10.24 µM; top dose inferred
Protocol: as §1

Cytarabine = compound: Nc1ccn([C@@H]2O[C@H](CO)[C@@H](O)[C@@H]2O)c(=O)n1 [Cytarabine]; settings: top dose 2 µM
Protocol: as §1

CP466722 = compound: COc1cc2ncnc(-n3nc(-c4ccccn4)nc3N)c2cc1OC [CP466722]; settings: top dose 16 µM; top dose inferred
Protocol: as §1

ABT-888 = compound: C[C@]1(c2nc3c(C(N)=O)cccc3[nH]2)CCCN1 [ABT-888]; settings: top dose 5 µM; top dose inferred
Protocol: as §1

MPS-1-IN-1 = compound: COc1cc(N2CCC(O)CC2)ccc1Nc1cc(Nc2ccccc2S(=O)(=O)C(C)C)c2cc[nH]c2n1 [MPS-1-IN-1]; settings: top dose 20 µM; top dose inferred
Protocol: as §1

Zibotentan = compound: COc1nc(C)cnc1NS(=O)(=O)c1cccnc1-c1ccc(-c2nnco2)cc1 [Zibotentan]; settings: top dose 20 µM; top dose inferred
Protocol: as §1

[1] = top dose 2.56 µM, screen: GDSC drug entry 154
[2] = top dose 10 µM, screen: GDSC drug entry 1241, top dose inferred

Cell Line	AUC ((5Z)-7-Oxozeaenol)	IC50 ((5Z)-7-Oxozeaenol)	AUC (ABT-869)	IC50 (ABT-869)	AUC (Thapsigargin)	IC50 (Thapsigargin)	AUC (CHIR-99021; [1])	IC50 (CHIR-99021; [1])	AUC (CHIR-99021; [2])	IC50 (CHIR-99021; [2])	AUC (GSK269962A)	IC50 (GSK269962A)	AUC (KU-55933)	IC50 (KU-55933)	AUC (QL-X-138)	IC50 (QL-X-138)	AUC (Cytarabine)	IC50 (Cytarabine)	AUC (CP466722)	IC50 (CP466722)	AUC (ABT-888)	IC50 (ABT-888)	AUC (MPS-1-IN-1)	IC50 (MPS-1-IN-1)	AUC (Zibotentan)	IC50 (Zibotentan)
451Lu (melanoma, adherent)	0.104	< 0.0391 µM	0.985	> 1.02 µM	0.179	0.00366 µM	0.984	> 2.56 µM	0.972	> 10 µM	0.988	> 5 µM	0.955	> 10 µM	0.794	4.49 µM	0.75	0.631 µM	0.887	> 16 µM	0.987	> 5 µM	0.967	> 20 µM	0.987	> 20 µM
639-V (bladder, adherent)	0.71	2.2 µM	0.985	> 1.02 µM	0.083	< 0.002 µM	0.99	> 2.56 µM	0.979	> 10 µM	0.92	> 5 µM	0.865	6.75 µM	0.881	7.96 µM	0.815	0.901 µM	0.941	> 16 µM	0.956	> 5 µM	0.988	> 20 µM	0.992	> 20 µM
647-V (bladder, adherent)	0.663	1.78 µM	0.985	> 1.02 µM	0.322	0.0101 µM	0.987	> 2.56 µM	0.983	> 10 µM	0.893	> 5 µM	0.922	> 10 µM	0.654	1.71 µM	0.806	1.02 µM	0.803	7.97 µM	0.984	> 5 µM	0.947	> 20 µM	0.987	> 20 µM
8305C (thyroid, adherent)	0.575	1.07 µM	0.974	> 1.02 µM	0.261	0.00528 µM	0.929	> 2.56 µM	0.97	> 10 µM	0.942	> 5 µM	0.887	> 10 µM	0.885	> 10.2 µM	0.875	> 2 µM	0.909	> 16 µM	0.982	> 5 µM	0.935	> 20 µM	0.978	> 20 µM
8505C (thyroid, adherent)	0.635	1.51 µM	0.985	> 1.02 µM	0.057	< 0.002 µM	0.938	> 2.56 µM	0.861	9.3 µM	0.976	> 5 µM	0.944	> 10 µM	0.667	1.92 µM	0.821	1.25 µM	0.876	> 16 µM	0.974	> 5 µM	0.927	> 20 µM	0.976	> 20 µM
ASH-3 (thyroid, adherent)	0.549	0.851 µM	0.983	> 1.02 µM	0.069	< 0.002 µM	0.872	2.43 µM	0.919	> 10 µM	0.78	2.06 µM	0.957	> 10 µM	0.86	8.57 µM	0.652	0.33 µM	0.911	> 16 µM	0.988	> 5 µM	0.988	> 20 µM	0.988	> 20 µM
BHT-101 (thyroid, adherent)	0.121	< 0.0391 µM	0.976	> 1.02 µM	0.381	0.0149 µM	0.983	> 2.56 µM	0.742	3.16 µM	0.814	2.83 µM	0.903	> 10 µM	0.909	> 10.2 µM	0.359	0.0503 µM	0.782	6.89 µM	0.973	> 5 µM	0.864	18.5 µM	0.985	> 20 µM
BICR10 (head and neck, adherent)	0.808	6.18 µM	0.973	> 1.02 µM	0.894	> 0.512 µM	0.877	> 2.56 µM	0.928	> 10 µM	0.899	> 5 µM	0.931	> 10 µM	0.904	> 10.2 µM	0.461	0.096 µM	0.913	> 16 µM	0.978	> 5 µM	0.985	> 20 µM	0.985	> 20 µM
BT-483 (breast, adherent)	0.747	6.24 µM	0.967	> 1.02 µM	0.954	> 0.512 µM	0.977	> 2.56 µM	0.941	> 10 µM	0.975	> 5 µM	0.947	> 10 µM	0.61	1.68 µM	0.975	> 2 µM	0.752	10.5 µM	0.978	> 5 µM	0.971	> 20 µM	0.971	> 20 µM
CFPAC-1 (pancreas, adherent)	0.699	2.48 µM	0.983	> 1.02 µM	0.386	0.0149 µM	–	–	–	–	–	–	0.981	> 10 µM	0.702	2.6 µM	0.739	0.676 µM	0.888	> 16 µM	0.959	> 5 µM	0.954	> 20 µM	0.983	> 20 µM
H3255 (lung adenocarcinoma, adherent)	0.813	6.72 µM	0.98	> 1.02 µM	0.534	0.0402 µM	–	–	–	–	0.877	> 5 µM	0.963	> 10 µM	0.665	2.02 µM	0.973	> 2 µM	0.928	> 16 µM	0.984	> 5 µM	0.974	> 20 µM	0.982	> 20 µM
HT-1197 (bladder, adherent)	0.702	2.59 µM	0.983	> 1.02 µM	0.781	0.254 µM	0.981	> 2.56 µM	0.943	> 10 µM	0.911	> 5 µM	0.971	> 10 µM	0.957	> 10.2 µM	0.931	> 2 µM	–	–	0.984	> 5 µM	0.953	> 20 µM	0.985	> 20 µM
JHH-4 (liver, adherent)	0.818	5.64 µM	0.981	> 1.02 µM	0.36	0.0131 µM	0.984	> 2.56 µM	0.886	> 10 µM	0.935	> 5 µM	0.902	> 10 µM	0.883	> 10.2 µM	0.93	> 2 µM	–	–	0.985	> 5 µM	0.946	> 20 µM	0.987	> 20 µM
NCI-H727 (lung carcinoid, adherent)	0.806	> 10 µM	0.965	> 1.02 µM	0.313	0.00675 µM	–	–	–	–	0.944	> 5 µM	0.947	> 10 µM	0.847	> 10.2 µM	0.955	> 2 µM	0.908	> 16 µM	0.97	> 5 µM	0.924	> 20 µM	–	–
NCI-H838 (lung adenocarcinoma, adherent)	0.758	3.59 µM	0.984	> 1.02 µM	0.34	0.0113 µM	–	–	–	–	0.827	3.24 µM	0.92	> 10 µM	0.979	> 10.2 µM	0.714	0.519 µM	0.967	> 16 µM	0.987	> 5 µM	0.957	> 20 µM	–	–
NCI-H1563 (lung adenocarcinoma, adherent)	0.742	3.56 µM	0.977	> 1.02 µM	0.735	0.173 µM	–	–	–	–	0.97	> 5 µM	0.955	> 10 µM	0.693	2.49 µM	0.796	1.14 µM	0.71	4.44 µM	0.984	> 5 µM	0.89	> 20 µM	0.983	> 20 µM
NCI-H1703 (lung adenocarcinoma, adherent)	0.485	0.563 µM	0.742	0.374 µM	0.362	0.0122 µM	–	–	–	–	0.853	> 5 µM	0.976	> 10 µM	0.627	1.55 µM	0.45	0.0887 µM	0.713	4.64 µM	0.982	> 5 µM	0.922	> 20 µM	0.981	> 20 µM
NCI-H2342 (lung adenocarcinoma, adherent)	0.822	6.65 µM	0.986	> 1.02 µM	0.055	< 0.002 µM	–	–	–	–	0.919	> 5 µM	0.986	> 10 µM	0.914	> 10.2 µM	0.927	> 2 µM	0.913	> 16 µM	0.964	> 5 µM	0.981	> 20 µM	0.977	> 20 µM
PFSK-1 (medulloblastoma, adherent)	–	–	0.978	> 1.02 µM	0.39	0.0156 µM	0.967	> 2.56 µM	–	–	0.879	> 5 µM	0.952	> 10 µM	0.627	1.46 µM	0.818	1.22 µM	0.789	7.54 µM	0.919	> 5 µM	0.907	> 20 µM	0.985	> 20 µM
SK-MES-1 (lung squamous cell carcinoma, adherent)	0.823	6.61 µM	0.976	> 1.02 µM	0.037	< 0.002 µM	–	–	–	–	0.95	> 5 µM	0.944	> 10 µM	0.74	3.33 µM	0.762	0.774 µM	0.708	4.11 µM	0.978	> 5 µM	0.979	> 20 µM	0.985	> 20 µM
SW626 (ovary, adherent)	0.585	1.12 µM	0.973	> 1.02 µM	0.411	0.0174 µM	0.98	> 2.56 µM	0.978	> 10 µM	0.897	> 5 µM	0.978	> 10 µM	0.694	2.5 µM	0.881	> 2 µM	0.785	8.27 µM	0.983	> 5 µM	–	–	0.978	> 20 µM

Lines with a small IC50 respond at low doses; a limit (>, <) means that the fit lies beyond the doses tested. AUC sums up the same curve from the lowest dose to the 256-fold higher top dose: 1 means no effect, lower means more sensitive. For part of these data: The top dose, if marked as inferred, is not printed in the source and was worked back from the curve model. For part of these data: Where an entry number is given, a second screen of the drug exists; the two often differ.
